Assay [1] addresses human LIFR expressed on the surface of 293T cells (human) (UniProt P42702). Briefly: flow cytometry on cells. (In general: A flow cytometer gives signals particle by particle.)
For assay [2], the target named is T1, human LIFR/gp130 heterodimer expressed on the surface of 293T cells (human) (UniProt P42702+P40189). Briefly: flow cytometry on cells.
Assay [3] addresses mouse LIFR-ECD protein (mouse) (UniProt P42703). Put plainly: ELISA, plate coated with 1 ug/mL mouse LIFR-ECD; same ELISA on coated mouse LIFR-ECD as M41; no different condition. In general terms: In an ELISA, binding on a coated surface is turned into a signal by an enzyme label.
Assay [4] addresses human LIFR expressed on the surface of 293T cells (human) (UniProt P42702). Put plainly: flow cytometry on HEK293T-huLIFR cells, FITC goat anti-human secondary antibody, FITC MFI against mAb concentration in nM.
Assay [5] deals with T1, human LIFR/gp130 heterodimer expressed on the surface of 293T cells (human). Briefly: flow cytometry on HEK293T-huLIFR/gp130 cells, FITC goat anti-human secondary antibody, FITC MFI against mAb concentration in nM.
Assay [6] has the same target. Put plainly: flow cytometry blocking assay: binding of huLIF-biotin (at its EC80) to HEK293T-huLIFR/gp130 cells, APC-streptavidin, APC MFI against mAb concentration in nM.
Assay [7] deals with mouse LIFR-ECD protein (mouse) (UniProt P42703). Put plainly: ELISA.
The target is the same in assay [8]. Put plainly: ELISA on plate-coated mouse LIFR-ECD (1 ug/mL), anti-human IgG Fc-HRP, OD450nm against mAb concentration in nM.
Assay [9] has as its target T1, human LIFR/gp130 heterodimer expressed on the surface of 293T cells (human). Put plainly: flow cytometry on HEK293T-huLIFR/gp130 cells, FITC goat anti-human secondary antibody, FITC MFI.
The target is the same in assay [10]. Put plainly: flow cytometry blocking assay: binding of huLIF-biotin (at its EC80) to HEK293T-huLIFR/gp130 cells, APC-streptavidin, APC MFI.

The chains behind the UniProt entries cited, without tags or fusion partners. Where a name states a change or a piece, a line headed by the entry shows the natural chain unless it says otherwise. Residues count along the entry.
UniProt P42702, residues 45-1097: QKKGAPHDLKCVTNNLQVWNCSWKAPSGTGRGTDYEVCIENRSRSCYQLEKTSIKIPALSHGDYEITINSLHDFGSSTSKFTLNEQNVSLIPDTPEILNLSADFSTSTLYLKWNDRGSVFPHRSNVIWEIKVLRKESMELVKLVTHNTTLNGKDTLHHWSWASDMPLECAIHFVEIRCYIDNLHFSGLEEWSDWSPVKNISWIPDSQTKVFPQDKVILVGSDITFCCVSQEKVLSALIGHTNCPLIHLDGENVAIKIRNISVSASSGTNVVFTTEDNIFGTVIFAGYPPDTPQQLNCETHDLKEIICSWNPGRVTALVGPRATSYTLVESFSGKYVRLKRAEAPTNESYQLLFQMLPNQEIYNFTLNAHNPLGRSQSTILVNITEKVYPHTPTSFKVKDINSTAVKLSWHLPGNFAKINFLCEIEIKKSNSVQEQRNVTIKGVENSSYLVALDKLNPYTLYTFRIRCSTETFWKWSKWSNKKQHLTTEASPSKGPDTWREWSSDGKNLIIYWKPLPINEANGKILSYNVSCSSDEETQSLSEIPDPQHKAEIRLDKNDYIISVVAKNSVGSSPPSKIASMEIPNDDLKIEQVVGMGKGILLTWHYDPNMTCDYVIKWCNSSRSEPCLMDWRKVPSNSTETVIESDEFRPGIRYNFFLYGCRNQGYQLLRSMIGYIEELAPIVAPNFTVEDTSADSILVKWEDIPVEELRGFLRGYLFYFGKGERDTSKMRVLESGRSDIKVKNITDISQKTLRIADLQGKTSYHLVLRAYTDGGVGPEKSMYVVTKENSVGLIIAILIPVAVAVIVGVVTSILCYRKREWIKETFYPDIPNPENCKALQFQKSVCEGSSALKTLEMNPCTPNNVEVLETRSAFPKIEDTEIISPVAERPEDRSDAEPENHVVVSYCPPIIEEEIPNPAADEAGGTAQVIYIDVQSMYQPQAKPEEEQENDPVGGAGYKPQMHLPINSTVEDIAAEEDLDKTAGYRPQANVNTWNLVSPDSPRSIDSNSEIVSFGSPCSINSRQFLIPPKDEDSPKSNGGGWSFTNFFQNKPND
UniProt P40189: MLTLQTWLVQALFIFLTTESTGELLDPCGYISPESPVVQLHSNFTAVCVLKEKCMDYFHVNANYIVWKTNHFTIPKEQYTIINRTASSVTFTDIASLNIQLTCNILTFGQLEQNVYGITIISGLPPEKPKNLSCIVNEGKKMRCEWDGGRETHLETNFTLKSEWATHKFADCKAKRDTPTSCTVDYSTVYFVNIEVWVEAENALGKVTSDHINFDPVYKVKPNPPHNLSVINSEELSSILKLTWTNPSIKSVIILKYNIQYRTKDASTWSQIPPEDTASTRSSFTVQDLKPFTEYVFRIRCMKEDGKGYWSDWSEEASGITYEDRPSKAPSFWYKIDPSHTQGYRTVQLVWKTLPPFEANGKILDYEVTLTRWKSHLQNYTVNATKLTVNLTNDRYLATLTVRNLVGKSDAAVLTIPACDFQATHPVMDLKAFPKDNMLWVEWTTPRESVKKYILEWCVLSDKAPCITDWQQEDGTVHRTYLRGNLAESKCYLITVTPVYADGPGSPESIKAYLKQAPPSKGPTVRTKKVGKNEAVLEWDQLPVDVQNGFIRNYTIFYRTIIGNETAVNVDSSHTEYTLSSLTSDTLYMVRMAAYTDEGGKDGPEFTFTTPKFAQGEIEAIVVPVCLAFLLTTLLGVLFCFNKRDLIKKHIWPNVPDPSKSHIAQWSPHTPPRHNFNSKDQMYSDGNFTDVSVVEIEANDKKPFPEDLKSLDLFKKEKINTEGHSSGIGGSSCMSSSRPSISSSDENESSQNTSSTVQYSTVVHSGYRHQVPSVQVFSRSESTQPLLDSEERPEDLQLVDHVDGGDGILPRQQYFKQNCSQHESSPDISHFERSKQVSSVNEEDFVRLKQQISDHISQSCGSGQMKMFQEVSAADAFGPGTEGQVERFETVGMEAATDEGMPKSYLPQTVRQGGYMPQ
UniProt P42703, residues 44-828: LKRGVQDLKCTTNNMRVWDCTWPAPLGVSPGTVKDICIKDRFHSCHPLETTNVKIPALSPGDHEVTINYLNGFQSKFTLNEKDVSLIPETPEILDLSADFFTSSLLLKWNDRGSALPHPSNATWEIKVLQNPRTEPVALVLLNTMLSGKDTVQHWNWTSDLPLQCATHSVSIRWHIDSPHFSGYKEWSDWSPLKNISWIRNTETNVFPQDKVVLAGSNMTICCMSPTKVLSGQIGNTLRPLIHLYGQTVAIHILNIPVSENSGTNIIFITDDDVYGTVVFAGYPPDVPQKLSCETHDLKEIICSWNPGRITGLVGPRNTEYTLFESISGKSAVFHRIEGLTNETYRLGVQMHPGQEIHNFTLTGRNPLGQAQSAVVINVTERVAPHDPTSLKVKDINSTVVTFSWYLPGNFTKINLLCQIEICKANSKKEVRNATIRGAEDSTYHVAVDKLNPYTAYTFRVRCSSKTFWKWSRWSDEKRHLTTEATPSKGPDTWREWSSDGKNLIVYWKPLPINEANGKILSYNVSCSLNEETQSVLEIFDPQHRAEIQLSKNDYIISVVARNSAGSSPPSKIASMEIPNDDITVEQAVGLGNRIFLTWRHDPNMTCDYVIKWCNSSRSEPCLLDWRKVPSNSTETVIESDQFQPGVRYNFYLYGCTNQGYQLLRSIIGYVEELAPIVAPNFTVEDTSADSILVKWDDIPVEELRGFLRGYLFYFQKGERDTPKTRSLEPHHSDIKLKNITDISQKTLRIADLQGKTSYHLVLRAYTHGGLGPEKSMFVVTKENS

Results are given in words; binding and its absence hold for the method and conditions named. Some results given as binding are weak or reduced against the parent protein; the word gives no strength.

The text below walks through data of patent US20250136702A1, “HUMAN LIFR ANTIGEN BINDING PROTEIN, PREPARATION METHOD THEREFOR, AND APPLICATION THEREOF” (NONA BIOSCIENCES (SUZHOU) CO., LTD., priority 2020, published 2025).

B1: PR301211 (antibody, human IgG1, kappa, V domains shown)
VH: QVQLVESGGGVVQPGRSLRLSCAASGFTFSSYGMHWVRQAPGKGLEWVAVIWFDGSLKYYADSVKGRFAISRDNSKNTLYLQMNSLRAEDTAIFYCARGQLVQDLWGRGTLVTVSS
VL: DIQMTQSPSTLSASVGDRVTITCRASQSISSWLAWYQQKPGKAPNLLMYKASNLESGVPSRFSGSGSGTEFTLTITSLQPDDFASYYCQQYKSNPLTFGGGTKVEIKR
On to B1, for which the binding entry in [1] is “binds”; in [2] it was “binds”; in [3] it was “no binding (tested: up to 100 nM)”; in assay [4], “binds”; in assay [5] it was “binds”; in assay [6], “binds”.

B2: PR301196 (antibody, human IgG1, kappa, V domains shown)
VH: QVQLVESGGGVVQPGRSLRLSCAASGFTFSSYGMNWVRQAPGKGLEWVAVIWFDGSIKYYADSVKGRFTISRDNSKNTLYLQMNSLRAEDTAIYYCARGQLVQDFWGRGTLVTVSS
VL: DIQMTQSPSTLSASVGDRVTITCRASQSISSWLAWYQQKPGKAPNLLMYKASNLENGVSSRFSGSGSGTEFTLTITSLQPDDFATYYCQQYKSNPLTFGGGTKVEIKR
For the molecule B2, the binding entry in assay [6] was “binds”.

B3: PR301195 (antibody, human IgG1, kappa, V domains shown)
VH: QVQLVESGGGVVQPGRSLRLSCAASGFTFSSYGMNWVRQAPGKGLEWVAVIWFDGSIKYYADSVKGRFTISRDNSKNTLYLQMNSLRAEDTAIYYCARGQLVQDFWGRGTLVTVSS
VL: DIQMTQSPSTLSASVGDRVTITCRASQSISSWLAWYQQKPGKAPNLLMYKASNLESGVPSRFSGSGSGTEFTLTITSLQPDDFASYYCQQYKSNPLTFGGGTKVEIKR
With B3, the binding result in assay [6] is listed as “binds”.

B4: PR301215 (antibody, human IgG1, kappa, V domains shown)
VH: QVQLVESGGGVVQPGRSLRLSCAASGFTFSSYGMHWVRQAPGKGLEWVAVIWFDGSIKYYADSVKGRFTISRDNSKNTLYLQMNSLRAEDTAIYYCARGQLVQDFWGRGTLVTVSS
VL: DIQMTQSPSTLSASVGDRVTITCRASQSISSWLAWYQQKPGKAPNLLMYKASNLESGVPSRFSGSGSGTEFTLTITSLQPDDFASYYCQQYKSNPLTFGGGTKVEIKR
With B4, the binding entry in assay [6] was “binds”.

B5: PR301218 (antibody, human IgG1, kappa, V domains shown)
VH: QVQLVESGGGVVQPGRSLRLSCAASGFTFSSYGMHWVRQAPGKGLEWVAVIWFDGSVKYYADSVKGRFTISRDNSKNTLYLQMNSLRAEDTAIYYCARGQLVQDFWGRGTLVTVSS
VL: DIQMTQSPSTLSASVGDRVTITCRASQSISSWLAWYQQKPGKAPNLLMYKASNLESGVPSRFSGSGSGTEFTLTITSLQPDDFASYYCQQYKSNPLTFGGGTKVEIKR
As to B5, the binding result in [6] was “binds”.

B6: PR301172 (antibody, human IgG1, kappa, V domains shown)
VH: EVQLLESGGGLVQPGGSLRLSCATSGFTFSNYAMTWVRQAPGKGLEWVVISGSGFLTYYADAVKGRFTISRVNSKNSLYLQMNSLRAEDTAVYYCTKGGILTGFDYWGQGTLVTVSS
VL: KIVMTQSPATLSVSPGERATLSCRASQNLNSNLAWYQQTPGQAPRLLIYGASTRAPGIPARFSGSGSGTEFTLTISSLQSEDFVVYFCQQYNNWPRTFGQGTKVEIKR
With B6, the binding result in assay [7] and in assay [8] was “binds” each time.

B7: PR301127 (antibody, human IgG1, kappa, V domains shown)
VH: EVQLLQSGGGLVQPGGSLRLSCAASGFTFSNYAMTWVRQAPGKGLEWVSTISGSGAFTYYADAVKGRFTISRVNSKNSLDLQMNSLRAEDTAVYYCAKGGILTGFDNWGQGTLVTVSS
VL: DIQMTQSPSTLSASVGDRVTITCRASQSISSWLAWYQQKPGKAPKLLIYKASSLESGVPSRFSGSGSGTEFSFTISSLQPDDFATYYCQQYKSFSPGGLTFGGGTKVEIKR
For the molecule B7, the binding result in assay [7] was “binds”; in assay [9], “no binding (tested: 100 nM)”; in assay [8] it was “binds”; in assay [10], “no binding (tested: 100 nM)”.

B8: PR301177 (antibody, human IgG1, kappa, V domains shown)
VH: QVQLVESGGGVVQPGRSLRLSCVASGFTFSSYGMNWVRQAPGKGLDWVTVIWFDGSNKYYADSVKGRFTISRDNSKNTLYLQMNSLRAEDTAMYYCARGERTLDLWGQGTLVTVSS
VL: DIQMTQSPSTLSASVGDRVTITCRASQSISSWLAWYQQKPGKAPKLLIYKASSLESGVPSRFSGSGSGTEFSFTISSLQPDDFATYYCQQYKSFSPGGLTFGGGTKVEIKR
On to B8, for which, in [6], the binding result was “binds”.
